Data reported in PubChem BioAssay (NCI).
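A five-concentration, 48-hour dose response in 96-well plates underlies each endpoint, interpolated linearly between surrounding concentrations. At the GI50, growth is halved.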 The source holds more than one record for some entries. This is not the full list of results. The source may hold further records. A record mostly stands for its own series of concentrations, which the source does not state; a value can be the end of its range.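 TGI marks complete inhibition of growth.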

Assays:
Assay in all cases: NCI-60 cell line screen, 48 h
[1] = test system: MCF7 breast
[2] = test system: TK-10 renal
[3] = test system: KM20L2 colon
[4] = test system: IGROV1 ovarian
[5] = test system: MOLT-4 leukemia
[6] = test system: U251 CNS
[7] = test system: KM12 colon
[8] = test system: K-562 leukemia
[9] = test system: M19-MEL melanoma
[10] = test system: CCRF-CEM leukemia
[11] = test system: A498 renal
[12] = test system: HL-60(TB) leukemia
[13] = test system: HOP-62 NSCLC
[14] = test system: NCI-H23 lung
[15] = test system: NCI-H522 lung
[16] = test system: HT29 colon
[17] = test system: DU-145 prostate
[18] = test system: LOX IMVI melanoma
[19] = test system: A549 NSCLC
[20] = test system: HCT-15 colon
[21] = test system: SW-620 colon
[22] = test system: SK-MEL-28 melanoma
[23] = test system: RPMI-8226 leukemia
[24] = test system: OVCAR-8 ovarian
[25] = test system: DMS 273 small cell lung
[26] = test system: LXFL 529 NSCLC
[27] = test system: HCC-2998 colon
[28] = test system: NCI-H460 lung
[29] = test system: SK-MEL-5 melanoma
[30] = test system: M14 melanoma
[31] = test system: OVCAR-4 ovarian
[32] = test system: UACC-62 melanoma
[33] = test system: UO-31 renal
[34] = test system: OVCAR-5 ovarian
[35] = test system: SNB-75 CNS
[36] = test system: SF-295 CNS
[37] = test system: COLO 205 colon
[38] = test system: HOP-18 NSCLC
[39] = test system: DLD-1 colon
[40] = test system: SK-MEL-2 melanoma
[41] = test system: HOP-92 NSCLC
[42] = test system: RXF 393 renal
[43] = test system: NCI-H226 lung
[44] = test system: SF-539 CNS
[45] = test system: DMS 114 small cell lung
[46] = test system: SNB-78 CNS
[47] = test system: OVCAR-3 ovarian
[48] = test system: UACC-257 melanoma
[49] = test system: SN12C renal
[50] = test system: ACHN renal
[51] = test system: 786-0 renal
[52] = test system: CAKI-1 renal
[53] = test system: SNB-19 CNS
[54] = test system: MALME-3M melanoma
[55] = test system: EKVX NSCLC
[56] = test system: SK-OV-3 ovarian
[57] = test system: HCT-116 colon
[58] = test system: SF-268 CNS
[59] = test system: SR leukemia

For `CC1OC(O[C@@H]2C=C3CC[C@@H]4[C@H](CC[C@]5(C)[C@@H](c6ccc(=O)oc6)CC[C@]45O)[C@@]3(C)CC2)C(O)C(O)C1O` (stereo partly specified), the TGI [1] was 3 nM, 32 nM, 32.2 nM, the GI50 [2] was 3.73 nM and 0.0198 nM and the TGI [3] was 3 nM and 32.4 nM. For the same compound, the TGI [4] was 3 nM, 17.5 nM, 67.2 nM, the GI50 [5] was 4.15 nM [1 test] and 0.365 nM [mean of 2 tests] and the TGI [6] was 3 nM, 11.9 nM, 32.2 nM. The TGI [7] was 3 nM and 30.7 nM, the TGI [8] was 3 nM, 0.579 nM, 97.8 nM and the TGI [9] was 3 nM and 40.4 nM. The TGI [10] was 3 nM and 30.1 nM, the TGI [11] was 3 nM and 33.4 nM and the TGI [12] was 0.0295 nM [1 test] and 2.07 nM [mean of 2 tests]. For the same compound, the TGI [13] was 0.179 nM [1 test] and 3 nM [mean of 2 tests], the TGI [14] was 38.7 nM [1 test] and 2.61 nM [mean of 2 tests] and the TGI [15] was 6.65 nM, 0.448 nM [1 test] and 3 nM [mean of 2 tests]. The TGI [16] was 3 nM and 300 nM, the GI50 [17] was 4.83 nM and 0.0298 nM and the TGI [18] was 3 nM, 0.697 nM, 300 nM. For the same compound, the TGI [19] was 0.0224 nM [1 test] and 1.76 nM [mean of 2 tests], the TGI [20] was 3 nM, 16.4 nM, 64.3 nM and the TGI [21] was 3 nM, 15.1 nM, 30.3 nM. The TGI [22] was 3 nM and 106 nM, the TGI [23] was 3 nM, 1.98 nM, 31.4 nM and the TGI [24] was 3 nM, 12.5 nM, 35.8 nM.

For `COc1cccc2c1C(=O)c1c(O)c3c(c(O)c1C2=O)C[C@@](O)(C(C)=O)C[C@@H]3OC1CC(N(Cc2ccccc2)Cc2ccccc2)C(O)C(C)O1` (stereo partly specified), the GI50 [25] was < 10 nM and 382 nM, the TGI [25] was < 10 nM, 6.12 µM, > 36.3 µM and the GI50 [2] was < 10 nM and 3.02 µM. The TGI [2] was < 10 nM and > 28.1 µM, the TGI [26] was < 10 nM and 6.13 µM and the GI50 [3] was < 10 nM [mean of 2 tests] and 511 nM [mean of 3 tests]. For the same compound, the TGI [3] was < 10 nM, 3.72 µM, > 50 µM, the GI50 [4] was < 10 nM and 1.25 µM and the TGI [4] was < 10 nM, 7.97 µM, > 37.5 µM. The GI50 [27] was < 10 nM [mean of 3 tests] and 1.83 µM [mean of 4 tests], the TGI [27] was < 10 nM and > 31.6 µM and the GI50 [28] was < 10 nM and 113 nM. The TGI [28] was < 10 nM, 7.2 µM, > 37.5 µM, the GI50 [5] was < 10 nM, 96 nM [mean of 4 tests] and 2.12 µM [mean of 6 tests] and the TGI [5] was < 10 nM, 439 nM [mean of 4 tests] and 23.1 µM [mean of 6 tests]. For the same compound, the GI50 [29] was < 10 nM [mean of 3 tests] and 1.75 µM [mean of 4 tests], the TGI [29] was < 10 nM, 6.41 µM, 30.9 µM and the GI50 [30] was < 10 nM and 21.9 µM. The TGI [30] was < 10 nM, 9.29 µM, > 28.1 µM, the GI50 [6] was < 10 nM and 932 nM and the TGI [6] was < 10 nM and > 37.5 µM. For the same compound, the GI50 [31] was < 10 nM and 786 nM, the TGI [31] was < 10 nM, 6.51 µM, > 36 µM and the GI50 [7] was < 10 nM and 793 nM. The TGI [7] was < 10 nM, 6.02 µM, > 36 µM, the GI50 [8] was < 10 nM and 371 nM and the TGI [8] was < 10 nM, 3.49 µM, > 36 µM. The GI50 [32] was < 10 nM and 1.15 µM, the TGI [32] was < 10 nM, 4.44 µM, > 50 µM and the GI50 [9] was < 10 nM and 1.19 µM. For the same compound, the TGI [9] was < 10 nM, 3.05 µM, > 50 µM, the GI50 [10] was 382 nM [mean of 3 tests] and < 10 nM [mean of 4 tests] and the TGI [10] was < 10 nM, 4.05 µM, > 34.1 µM. The GI50 [33] was 745 nM [mean of 3 tests] and < 10 nM [mean of 4 tests], the TGI [33] was < 10 nM, 6.94 µM, > 36 µM and the GI50 [11] was < 10 nM [mean of 2 tests] and 2.88 µM [mean of 3 tests]. For the same compound, the TGI [11] was < 10 nM and > 36 µM, the GI50 [34] was < 10 nM [mean of 3 tests] and 1.85 µM [mean of 4 tests] and the TGI [34] was < 10 nM, 9.05 µM, > 37.5 µM. For the same compound, the GI50 [35] was 1.55 µM [mean of 3 tests] and < 10 nM [mean of 4 tests], the TGI [35] was < 10 nM, 9.55 µM, > 37.5 µM and the GI50 [36] was < 10 nM and 1 µM. For the same compound, the TGI [36] was < 10 nM, 7.13 µM, 25.9 µM, the GI50 [37] was 1.22 µM [mean of 3 tests] and < 10 nM [mean of 4 tests] and the TGI [37] was < 10 nM, 8.64 µM, > 34.1 µM. For the same compound, the GI50 [38] was 1.49 µM [mean of 2 tests] and < 10 nM [mean of 3 tests], the TGI [38] was < 10 nM, 4.28 µM, > 50 µM and the GI50 [39] was 372 nM [mean of 2 tests] and < 10 nM [mean of 3 tests]. For the same compound, the TGI [39] was < 10 nM, 4.32 µM, > 28.1 µM, the GI50 [40] was < 10 nM and 2.02 µM and the TGI [40] was < 10 nM, 6.07 µM, > 36 µM. The GI50 [12] was < 10 nM and 535 nM, the TGI [12] was < 10 nM, 4.39 µM, > 50 µM and the GI50 [41] was < 10 nM [mean of 2 tests] and 1.69 µM [mean of 4 tests]. The TGI [41] was < 10 nM, 9.78 µM, > 36 µM, the GI50 [13] was < 10 nM and 3.72 µM and the TGI [13] was < 10 nM and > 31.6 µM. For the same compound, the GI50 [42] was < 10 nM and 1.27 µM, the TGI [42] was < 10 nM, 4.21 µM, > 37.5 µM and the GI50 [43] was < 10 nM [mean of 2 tests] and 1.05 µM [mean of 4 tests]. For the same compound, the TGI [43] was < 10 nM, 3.89 µM, > 36 µM, the GI50 [44] was < 10 nM and 1.04 µM and the TGI [44] was < 10 nM, 7.92 µM, > 37.5 µM. The GI50 [45] was 1.14 µM [mean of 3 tests] and < 10 nM [mean of 4 tests], the TGI [45] was < 10 nM, 6.05 µM, > 50 µM and the GI50 [46] was > 50 µM [mean of 3 tests] and < 10 nM [mean of 4 tests]. For the same compound, the TGI [46] was > 50 µM [mean of 3 tests] and < 10 nM [mean of 4 tests], the GI50 [47] was < 10 nM and 1.99 µM and the TGI [47] was < 10 nM, 7.78 µM, > 36 µM. For the same compound, the GI50 [48] was < 10 nM and 2.48 µM, the TGI [48] was < 10 nM, 8.79 µM, > 34.1 µM and the GI50 [49] was < 10 nM and 754 nM. For the same compound, the TGI [49] was < 10 nM, 8.43 µM, > 37.5 µM, the GI50 [14] was 884 nM [mean of 2 tests] and < 10 nM [mean of 4 tests] and the TGI [14] was < 10 nM, 5.6 µM, > 37.5 µM. For the same compound, the GI50 [50] was < 10 nM and 2.71 µM, the TGI [50] was < 10 nM, 3.51 µM, > 28.1 µM and the GI50 [51] was 3.19 µM [mean of 3 tests] and < 10 nM [mean of 4 tests]. For the same compound, the TGI [51] was < 10 nM, 6.87 µM, > 23.2 µM, the GI50 [52] was < 10 nM and 121 nM and the TGI [52] was < 10 nM, 859 nM, 44.4 µM. The GI50 [53] was < 10 nM and 193 nM, the TGI [53] was < 10 nM, 4.98 µM, > 50 µM and the GI50 [54] was < 10 nM and 1.22 µM. For the same compound, the TGI [54] was < 10 nM, 6.73 µM, > 37.5 µM, the GI50 [55] was < 10 nM and 3.16 µM and the TGI [55] was < 10 nM, 8.16 µM, > 50 µM. The GI50 [56] was < 10 nM and 8.08 µM, the TGI [56] was < 10 nM and > 36 µM and the GI50 [57] was < 10 nM and 239 nM. The TGI [57] was < 10 nM, 3.95 µM, > 37.5 µM, the GI50 [15] was < 10 nM and 2.16 µM and the TGI [15] was < 10 nM, 7.11 µM, > 36 µM. For the same compound, the GI50 [16] was < 10 nM and 8.07 µM, the TGI [16] was < 10 nM, 9.15 µM, > 28.1 µM and the GI50 [18] was < 10 nM and 487 nM. For the same compound, the TGI [18] was < 10 nM, 3.05 µM, 30.5 µM, the GI50 [19] was < 10 nM and 208 nM and the TGI [19] was < 10 nM, 7.56 µM, > 37.5 µM. For the same compound, the GI50 [20] was < 10 nM [mean of 3 tests] and 476 nM [mean of 4 tests], the TGI [20] was < 10 nM, 6.09 µM, > 37.5 µM and the GI50 [58] was < 10 nM and 794 nM. The TGI [58] was < 10 nM, 7.58 µM, > 36 µM, the TGI [21] was < 10 nM, 519 nM, > 50 µM and the GI50 [59] was 944 nM [mean of 2 tests] and < 10 nM [mean of 3 tests]. The TGI [59] was < 10 nM, 806 nM, > 14 µM, the GI50 [22] was < 10 nM and 2.12 µM and the TGI [22] was < 10 nM, 6.05 µM, > 37.5 µM. The GI50 [23] was < 10 nM and 468 nM, the TGI [23] was < 10 nM, 3.46 µM, > 46 µM and the GI50 [24] was < 10 nM and 368 nM. For the same compound, the TGI [24] was < 10 nM, 4.49 µM, > 37.5 µM.
